# The list shows a part of the results.
# T1: UNK ZnF1-3 (human, UniProt Q9C0B0 31-174)
# T1 sequence: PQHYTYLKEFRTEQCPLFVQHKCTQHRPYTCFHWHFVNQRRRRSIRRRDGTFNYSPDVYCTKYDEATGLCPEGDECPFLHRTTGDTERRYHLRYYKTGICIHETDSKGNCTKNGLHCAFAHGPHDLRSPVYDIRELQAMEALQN
# B1: chr10:33190432:33190433:-_ENSG00000150093_ENST00000302278|hu_mus|hu_hu_hu_mus_True|1_88 (ssRNA)
# RNA: GGGAGUUCUACAGUCCGACGAUCUACAUUUUCCAAACCUGCAUGUGAGUAAAACCAUGGCCACAGAGCCCCAAAACUACCCUACUGUGACUAAGAUGCUGCUGCUGUGAGCUUGGUGUUGCAAAAUCCGCCUGAGUCAGUACUCAACAGAGGAUUGAGCAUCA
# B2: chr17:65740002:65740003:+_ENSG00000130935_ENST00000581375|hu_hu|hu_hu_hu_mus_False|18_28 (ssRNA)
# RNA: GGGAGUUCUACAGUCCGACGAUCAACAAAUCUUUCUUCCCUGGACGAACAGGAAGAUUCAUAUUAAAAAAAAUAUAUAUCCAUCAAGUUAGGUGUGGUGGCCACACAGAGCUCCAGCACUUCAAUUGAGGUGGAUCUCUGAGUCAACAGAGGAUUGAGCAUCA
# B3: chr12:93804944:93804945:-_ENSG00000177889_ENST00000549833|hu_mus|FALSE|FALSE (ssRNA)
# RNA: GGGAGUUCUACAGUCCGACGAUCCAUGAAACGUACUUUAGGUGCUGCCAUUGGGUAUUCUUCUGGAAGGAAUAGUUCAAGUUUAAAAGUCCCUCCCUCAAAGGGGGAAUCCUGGGGGCCAGCAAUGACCACAUGAAAAUAACGCAACAGAGGAUUGAGCAUCA
# B4: chr7:149068622:149068623:-_ENSMUSG00000025139_ENSMUST00000001950|mus_hu|mus_mus_mus_hu_False|48_58 (ssRNA)
# RNA: GGGAGUUCUACAGUCCGACGAUCGUGAGGCCUCUGAGUGUGGCUUGUGGUCUGUCCUGGGUUAGAGUUGUUAAUAUCACUAAGUGGACCACUUAAGACGUUCCAGUCCCGCCUGACACCUUCAUUCCCAAUGGAGAAGAAAUCCAACAGAGGAUUGAGCAUCA
# B5: chr4:17625889:17625890:+_ENSG00000118579_ENST00000237380|hu_hu|FALSE|FALSE (ssRNA)
# RNA: GGGAGUUCUACAGUCCGACGAUCAGAGCUCUGGAAACAUUACAAAUAUUGUAUUAGAUUCCUCUUCUUGAGGUAGUUCAAAGUCUUAAAACAGAGCAAAUUUACAUACUUUUCUACACACCACCGCGGGGUAAUUAUCAUAAGCAACAGAGGAUUGAGCAUCA
# B6: chr12:54126753:54126754:+_ENSMUSG00000061603_ENSMUST00000095737|mus_hu|FALSE|FALSE (ssRNA)
# RNA: GGGAGUUCUACAGUCCGACGAUCCUGCUCCUCUGACAUCAUCAGGUCGUGGCUGUCCAUCACAAGGGACUCCAUGUCAAUCAGCCAAUCCCAGAGCUCCUGAUAUUCUGAAUCAAAGUCCAGAAGCCCAUUGCUUCCCACUGACAACAGAGGAUUGAGCAUCA
# B7: 74383303_74383423_1176_3pUTR_ENSG00000114978_ENST00000396049|human|control|control (ssRNA)
# RNA: GGGAGUUCUACAGUCCGACGAUCUUAUUGAUGGAAAUUCUUAAUGUCCAUUGUGCUGUCACCUAAAACAGAUUCAAUCAUUUUCUUGUAAAGAAAUGACUGAGUAAAUGAGUAAAAGAAUAAUAAGUAAAUUUAUAAGCUACACAACAGAGGAUUGAGCAUCA
# B8: chr17:6138058:6138059:+_ENSMUSG00000034377_ENSMUST00000152672|mus_mus|motif|central (ssRNA)
# RNA: GGGAGUUCUACAGUCCGACGAUCAAGCCCUUCCCUCAAGCAGAGGUGGAGGCCUGCGGGUCACUGAGUAUGAAUAAACUGCGGUCGGAAUGGACCAAGUAGUUUCCUCAGUUUGGUCCUACUUCUUGCUUACACAGACUAGGCCAACAGAGGAUUGAGCAUCA
# B9: chr7:7679991:7679992:-_ENSG00000106399_ENST00000396682|hu_hu|hu_hu_hu_mus_False|88_88 (ssRNA)
# RNA: GGGAGUUCUACAGUCCGACGAUCUGGGAUGAAUCUUUUCCAGCUUCCCUACGAAGCACACGGGCCGGUCGAUAUACUGUGGUAACAUGCUGGCGUUGACGCGCGCUUUGGGGAGCUGCAUUAUGUCCUCCAUGAUUCUGCCGCCAACAGAGGAUUGAGCAUCA
# B10: chr2:153237265:153237266:-_ENSMUSG00000061411_ENSMUST00000109784|mus_mus|mus_mus_mus_hu_False|58_108 (ssRNA)
# RNA: GGGAGUUCUACAGUCCGACGAUCAAAAAAAAGAAAAAAAAAGUGUCCUUGUGCCCAAAGUCUCAGGUGCUUGGAGUGCAGCUAGAAACAGCUCUUUUGGAUCCCACCUCUUUCAAAAACAAAAUGUACCAACUGGUGAGGCAGCAACAGAGGAUUGAGCAUCA
# B11: chr12:110819636:110819637:-_ENSG00000196510_ENST00000455511|hu_mus|FALSE|FALSE (ssRNA)
# RNA: GGGAGUUCUACAGUCCGACGAUCAAGCCUGAUGGCCUCCCGAAAGUGUAUGAUGGCUUCCUGGACCCUCCCCAUGUUCCUAAGCGCCGCCCCCUUGAGUAACAGAGCCUGGACGCUGUUGCUGUUCAGCUGGAUGGCCUUGGCCAACAGAGGAUUGAGCAUCA
# B12: chr6:170852807:170852808:-_ENSG00000008018_ENST00000262193|hu_mus|FALSE|FALSE (ssRNA)
# RNA: GGGAGUUCUACAGUCCGACGAUCGAUGGUAGACAGCAUUGCAGCAAUCGCCCCCGUUGUCAUGGCCUUGUUAUUGGAAUGCUUGUACAUCUUUAAUCUUGCUUCAAUAAUCUUUGUCAAAGUGAGACAAUCUCCAUGGAAACCCAACAGAGGAUUGAGCAUCA
# B13: 50489598_50490197_1917_CDS_ENSMUSG00000032064_ENSMUST00000117646|mouse|control|control (ssRNA)
# RNA: GGGAGUUCUACAGUCCGACGAUCAGGGGGCCAGGAUGCCCGGUAUUCACUGCUUGCUUGAUUUCUGGGUGACCGCCCCCCAACCUUCCUUUCUUGUUUCUUCUGUGUCUCUACGACAUGCAGACGCUCCAUGAGGCUAGAGAUCAACAGAGGAUUGAGCAUCA
# B14: 49438674_49439748_4755_CDS_ENSG00000167548_ENST00000301067|human|control|control (ssRNA)
# RNA: GGGAGUUCUACAGUCCGACGAUCCAUGGUCAGGUUACGCAGCAAGGCCAUGCCAGUUUCUGUCAGCCACACACCUUCGAAGCGAAAGUACUGGGGCUCUGGCUCUUUCACCUUCAUGGGCACCAGCUCUGGAGGUGCAACAGGCAACAGAGGAUUGAGCAUCA
# Target: T1, UNK ZnF1-3
# Assay: nsRBNS (natural sequence RNA bind-n-seq); RBNS binding buffer (assumed for nsRBNS): 25 mM Tris pH 7.5, 150 mM KCl, 3 mM MgCl2, 0.01% Triton X-100, 500 ug/ml BSA, 20 U/ml SUPERase-In, 4 C; UNK is unkempt and MSI1 is Musashi-1; names of the RNAs are library labels; protein concentration not given here; high values mean tight binding
row,Binder,binding signal [enrichment R]
1,B1,0.999
2,B2,1.09
3,B3,1.08
4,B4,0.835
5,B5,1.34
6,B6,1.13
7,B7,2.87
8,B8,0.705
9,B9,0.541
10,B10,2.52
11,B11,0.762
12,B12,0.887
13,B13,0.651
14,B14,1.05
